Measured values taken from paper PMC4336329 (PLoS ONE, 2015).
In all, about 310,000 compounds went through this assay and about 14,000 (4.5%) showed an effect of 50% or more. The effect is printed as a negative number. The list shows a part of the results. Where a SMILES comes first, the peptide text is derived from it. [ ]: non-standard residue; d: D form. pGlu = O=C1CC[CH](C(=O)O)N1

What follows are compounds tested against human ether-à-go-go-related gene (hERG) potassium channel (human, UniProt Q12809) (assay: primary screen, population patch clamp on CHO cells stably expressing hERG).
Sequence of human ether-à-go-go-related gene (hERG) potassium channel (Q12809 whole entry, looked up): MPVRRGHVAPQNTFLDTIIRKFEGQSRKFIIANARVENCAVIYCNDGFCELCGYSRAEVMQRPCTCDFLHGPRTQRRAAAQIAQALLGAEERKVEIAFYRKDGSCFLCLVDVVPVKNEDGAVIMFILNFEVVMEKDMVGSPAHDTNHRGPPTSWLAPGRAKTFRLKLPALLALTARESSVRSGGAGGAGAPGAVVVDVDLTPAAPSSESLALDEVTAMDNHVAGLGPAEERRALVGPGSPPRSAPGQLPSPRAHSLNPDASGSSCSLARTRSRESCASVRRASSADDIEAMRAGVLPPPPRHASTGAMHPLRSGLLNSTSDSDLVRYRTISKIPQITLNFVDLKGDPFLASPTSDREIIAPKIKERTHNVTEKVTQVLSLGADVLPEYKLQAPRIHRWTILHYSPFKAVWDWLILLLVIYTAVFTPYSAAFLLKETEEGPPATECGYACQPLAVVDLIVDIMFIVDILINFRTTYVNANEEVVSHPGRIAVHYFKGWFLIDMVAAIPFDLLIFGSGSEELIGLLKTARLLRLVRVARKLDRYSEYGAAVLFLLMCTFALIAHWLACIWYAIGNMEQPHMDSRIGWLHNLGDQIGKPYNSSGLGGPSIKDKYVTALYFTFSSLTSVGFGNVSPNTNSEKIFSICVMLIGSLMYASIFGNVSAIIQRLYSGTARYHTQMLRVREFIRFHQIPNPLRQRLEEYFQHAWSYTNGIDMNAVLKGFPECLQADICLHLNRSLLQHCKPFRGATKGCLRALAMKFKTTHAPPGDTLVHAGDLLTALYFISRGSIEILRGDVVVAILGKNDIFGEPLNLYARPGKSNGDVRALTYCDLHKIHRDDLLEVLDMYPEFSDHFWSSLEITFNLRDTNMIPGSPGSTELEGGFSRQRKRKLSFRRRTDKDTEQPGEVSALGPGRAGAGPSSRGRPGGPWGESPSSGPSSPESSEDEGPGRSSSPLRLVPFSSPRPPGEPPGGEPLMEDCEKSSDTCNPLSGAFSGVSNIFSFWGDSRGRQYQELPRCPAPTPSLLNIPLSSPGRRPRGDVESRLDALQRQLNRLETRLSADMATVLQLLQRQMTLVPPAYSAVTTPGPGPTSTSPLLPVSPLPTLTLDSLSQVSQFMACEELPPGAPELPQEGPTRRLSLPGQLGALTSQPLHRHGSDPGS
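Further: peak tail current of the secondary pulse compared with the same well before compound.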

SMILES	hERG current change (%, negative = inhibition) at 10uM
C/C=C/c1ccccc1OCc1ccc(C(=O)O)o1	20%
COc1ccc(C(=O)N2CCCC(c3nc(-c4cccs4)no3)C2)cc1 (stereo not drawn)	-22.4%
O=C(CNC(=O)[C@@H]1Cc2ccccc2CN1)NC1CCCCC1	13.1%
CCOc1ccc(NC(=O)C2CSC(c3ccncc3)=N2)cc1 (stereo not drawn)	-22.7%
COCCCN1CC(=O)N2Cc3[nH]c4ccccc4c3C[C@H]2C1=O	15.5%
COC(=O)c1c(-c2ccco2)csc1NC(=O)C1CC=CCC1C(=O)O (stereo not drawn)	8.18%
COc1ccc(CCNC(=O)c2ccc(N(C)S(=O)(=O)c3ccccc3)cc2)cc1	-17.1%
CCN(CC)CCNC(=O)C1c2cc(OC)c(OC)cc2C(=O)N2CCc3ccccc3C12 (stereo not drawn)	3.4%
CCSc1nc(-c2ccc(OC)cc2)ccc1C#N	1.72%
COc1ccc(CCNC(=O)Cc2ccccc2)cc1OC	16.9%
O=C(NCCCN1CCN(Cc2ccccc2)CC1)c1nnc(Cc2c(F)cccc2Cl)o1	-63.1%
CC(=O)c1cccc(NC(=O)C(C)OC(=O)c2ccc3ncsc3c2)c1 (stereo not drawn)	-21.9%
CCCCn1c(SCC(N)=O)nc2ccc(N3CCOCC3)cc2c1=O	-38.7%
CCC(C)NC(=O)c1[nH]c(C)c(C(=O)OC)c1C (stereo not drawn)	-18.9%
COc1ccc(NC(C)C(=O)N/N=C/c2cc(Br)ccc2OC)cc1 (stereo not drawn)	6.81%
CS(=O)(=O)N1N=C(c2ccco2)CC1c1ccc(Cl)cc1 (stereo not drawn)	-7.35%
Cc1cc(Nc2cccc(O)c2)c2ccccc2n1.Cl	-64.2%
O=C(O)C1C2CCC(O2)C1C(=O)Nc1ccc(OC(F)F)cc1 (stereo not drawn)	9.23%
CC(OC(=O)c1c[nH]c2ccccc12)C(=O)N1CCCC1 (stereo not drawn)	9.99%

SMILES	hERG current change (%, negative = inhibition) at 10uM
O=C(Nc1c(F)cccc1F)C1CCN(C(=O)c2cccs2)CC1	17.8%
COc1cccc(OC)c1C(=O)Nc1ccc(N2CCN(S(C)(=O)=O)CC2)cc1	7.69%
Cc1ccc(-n2c(=O)[nH]cc(C(=O)Nc3ccc4c(c3)OCO4)c2=O)cc1C	-5.13%
COc1cc(C2Nc3cccc4cccc(c34)N2)cc(OC)c1OC(C)=O	9.54%
CCOc1ccc(C(=O)Nc2ccc(CN3CCOCC3)cc2)cc1Cl	-56%
CC(OC(=O)CN(C)S(=O)(=O)c1ccc(Cl)cc1)C(=O)Nc1cccc(Cl)c1 (stereo not drawn)	4.29%
Cc1ccc(C(=O)NCC(=O)NCC(=O)OCC(=O)c2ccc([N+](=O)[O-])cc2)cc1	4.79%
CC1=C(C#N)C(c2ccc3ncccc3c2)C(C#N)=C(C)N1	7.71%
CCOc1ccc(C(=O)N2CCN=C2SC)cc1OCC	10.9%
COc1ccc(-n2c(=S)[nH]c3c(oc4ccccc43)c2=O)cc1	10.5%
O=C(Nc1ccccc1)C1CCN(C(=O)c2ccc(Br)cc2)CC1	-59.3%
Cc1cc(N2C(=O)C3CCCN3C2c2sccc2C)no1 (stereo not drawn)	12.5%
COC(=O)C(Cc1cnc[nH]1)NC(=O)C1CCC(=O)N1 (stereo not drawn) ([pGlu]-His-OMe; configuration not given here)	47.5%
CN(C1CCCCC1)S(=O)(=O)c1cc2c(cc1Cl)NC(=O)CO2	-19.2%
CC(C)CCn1c(=O)c2ccccc2n2c(CCC(=O)NC3CCN(Cc4ccccc4)CC3)nnc12	-49.6%
Cc1ccc(C(=O)Cn2nnc3ccccc32)cc1[N+](=O)[O-]	5.7%
O=C(NCc1ccccc1)C1CCCN(S(=O)(=O)c2ccc(F)cc2)C1 (stereo not drawn)	-7.42%
COc1ccc2c(c1)CCc1c(C(=O)N3CCCC3)noc1-2	-7.79%
CCN(CC(=O)Nc1ccccc1C(F)(F)F)C(=O)c1ccccc1Sc1ccccc1C#N	4.62%

SMILES	hERG current change (%, negative = inhibition) at 10uM
CCC(C)(C)NC(=O)COc1ccc(C(=O)c2ccccc2)cc1	-28.2%
CCOC(=O)c1cnn(-c2ccccc2)c1-n1cccc1C(=O)C(=O)N(C)C	-4.57%
COc1cc(C(=O)NCCCCCC(=O)O)cc(OC)c1OC	-22.1%
Cc1ccccc1OCC1CNC(=O)O1 (stereo not drawn)	20.5%
O=c1c2ccccc2c2c(O)nc(-c3ccccc3)n2n1Cc1ccccc1	11.2%
COc1ccc(CN2C(=NC(=O)C3CC3)SC3CS(=O)(=O)CC32)cc1 (stereo not drawn)	8.08%
CN1CCN(CCOc2ccc(Cc3ccccc3)cc2)CC1.Cl	-23.4%
Cc1c(NC(=O)CSc2nnc(N)s2)c(=O)n(-c2ccccc2)n1C	-10.4%
CCOc1ccc(NC(=O)C(C)O)c(NS(=O)(=O)c2ccc(CCNC(C)=O)cc2)c1 (stereo not drawn)	10.7%
CCC/C=N/Nc1nc2ccccc2s1	-6.12%
COc1ccc(NC(=O)Cn2cc(C(C)=O)c3ccccc32)cc1	1.65%
Cl.Clc1ccc(Sc2ccccn2)cc1	5.45%
O=C(CC1CCCC1)Nc1cc(S(=O)(=O)N2CCOCC2)ccc1O	4.05%
Cc1ccc(C(C(=O)NC(C)(C)C)N(Cc2ccco2)C(=O)CCC(=O)Nc2ccccn2)cc1 (stereo not drawn)	7.84%
O=C(COC(=O)C1=COCCO1)NCc1ccc(Cl)cc1	-0.77%
CC1CCCN(C(=O)NC(=O)c2ccc(Cl)cc2)C1 (stereo not drawn)	3.85%
COc1cc(CNCCNC(=O)c2nonc2N)ccc1OCc1ccc(Cl)cc1.Cl	-74.4%
Cl.O=C(Nc1cccc(F)c1)[C@@H]1CCCN1	17.2%
C=CCn1c(=NC(=O)c2ccc(S(=O)(=O)N3CCCC3)cc2)sc2cc(NC(C)=O)ccc21	-9.96%
